# Results from PubChem BioAssay AID1745845 (National Center for Advancing Translational Sciences (NCATS), 2022).
# Among all 360,000 compounds or so, about 2,600 (0.72%) were called active. This list was built around the results that the source calls inconclusive (neither active nor inactive); the mix of calls is not that of the screen. The call rests on the fitted dose curve; in most records, active means well fitted inhibition curve with a large enough effect; inconclusive means small, poorly fitted or top-dose-only effect; inactive means no such curve, though single readings can be large or run the other way. Potencies of inconclusive entries are doubtful fits and often do not repeat.
# Assay: Primary qHTS for Inhibitors of ATXN expression; further: nearly all actives have a fitted effect of over 55% in size
# Conditions: HEK-293 ATXN2-luciferase reporter, luminescence, 24 h; activity change, negative = inhibition: at 57 µM (top of the series)
# Summary of the method: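 qHTS (up to 57 uM final) was run with 24 h compound exposure of reporter cells at 37 °C. Each well was multiplexed: SteadyGlo luminescence measured ATXN2-luciferase expression after a fluorogenic Gly-Phe-AFC viability readout (25 uM final).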
# On the % scale 0 is the no-effect control and ±100 the full control effect; potency means the concentration at half of the fitted maximal effect; tags describe the fitted curve by direction and shape.
Compound,"activity change, negative = inhibition",Potency
Cc1cn([C@H]2C[C@H](O)[C@@H](CNCc3ccccc3)O2)c(=O)[nH]c1=O,inactive: 6.14%,
O=[N+]([O-])c1ccc(CC(Cl)c2ccccn2)cc1 (stereo not drawn),inactive: 24.7%,
Cc1ccc(CNC(=O)c2cc3c(-c4ccc(Cl)cc4)nn(C)c3s2)o1,,"inconclusive: 28.2 µM [inhibitor, partial curve, poor fit]"
CC(=NNc1nc2ccccc2s1)c1ncccn1,,"inconclusive: 1.12 µM [inhibitor, full curve, poor fit]"
C=CCc1ccccc1OCC(=O)N/N=C/c1ccc(OC(C)=O)cc1OC(C)=O,,active: 22.4 µM
COc1cc(-c2cnc3c(NC=O)cc(-c4ccsc4)cn23)cc(OC)c1OC,,"inconclusive: 39.8 µM [inhibitor, single point]"
O=C(NCc1ccc2c(c1)OCO2)c1n[nH]c(=O)c2ccccc12,,"inconclusive: 15 µM [inhibitor, partial curve, poor fit]"
CCc1ccc(N2CC(C(=O)Nc3ccc(S(=O)(=O)N4CCOCC4)cc3)CC2=O)cc1 (stereo not drawn),inactive: -3.71%,
N#Cc1ccccc1OCC(=O)Nc1cccc(S(=O)(=O)N2CCCCCC2)c1,,"inconclusive: 39.8 µM [inhibitor, partial curve, poor fit]"
CC(C)(C)n1nnnc1C(c1cccnc1)N(Cc1ccccc1)Cc1cccs1 (stereo not drawn),,"inconclusive: 39.8 µM [inhibitor, single point]"
Cc1ccc(C)c(NC(=O)CCC(=O)NNC(=O)C(c2ccccc2)c2ccccc2)c1,inactive: -2.78%,
O=C(O)c1ccc(OCCN2CCCCC2)cc1,inactive: 12.8%,
COc1ccc(NC(=O)c2c(F)c(F)c(F)c(F)c2F)cc1Cl,,"inconclusive: 25.1 µM [inhibitor, partial curve, poor fit]"
CN(CC(=O)Nc1ccc(Br)cc1)S(=O)(=O)c1cccc2nsnc12,,"inconclusive: 39.8 µM [inhibitor, single point]"
CCC(c1nnnn1C1CCCC1)N(Cc1cccs1)Cc1cc2cc(C)ccc2[nH]c1=O (stereo not drawn),,active: 31.6 µM
O=C(NC(=S)NCCc1ccccn1)c1ccccc1,inactive: 5.41%,
CCOc1cccc(CN2CCCC(N3CCN(c4cccc(Cl)c4)CC3)C2)c1O (stereo not drawn),,"inconclusive: 12.6 µM [inhibitor, partial curve, poor fit]"
COCCNc1nc(-c2cc(C)n(CCc3ccc(OC)cc3)c2C)cs1,,"inconclusive: 10.6 µM [inhibitor, partial curve, poor fit]"
O=Cc1c(SCCO)nc2ccccn2c1=O,inactive: 7.38%,
CCn1c(-c2ccc(OC)c(OC)c2)n[nH]c1=S,inactive: -15%,
Cc1cccc(OCCCCn2c(C3CC(=O)N(c4ccc(C)cc4C)C3)nc3ccccc32)c1 (stereo not drawn),,"inconclusive: 25.1 µM [inhibitor, single point]"
COc1ccc(-c2[nH]ncc2/C=C(/C#N)C(=O)NC2CCCCCC2)cc1,,"inconclusive: 28.2 µM [inhibitor, partial curve, poor fit]"

Compound,"activity change, negative = inhibition",Potency
COc1ccc(Nc2c3c(nc4ccccc24)CCC3)cc1,,"inconclusive: 21.2 µM [inhibitor, partial curve, poor fit]"
CN(C)CCCN1c2ccccc2Sc2ccc3ccccc3c21,inactive: -5.47%,
C/C(=N\NC(=O)c1cccc(Br)c1)c1ccccn1,,"inconclusive: 0.562 µM [inhibitor, full curve]"
CCCCCCCC(=O)Nc1ccc(C(=O)N/N=C/c2cccc([N+](=O)[O-])c2)cc1,,"inconclusive: 8.91 µM [inhibitor, partial curve]"
CCN(CC)C(=O)C1=C(C)N(Cc2ccc(C(C)(C)C)cc2)C(=O)C(CC(=O)NCc2cccc3ccccc23)C1 (stereo not drawn),,"inconclusive: 31.6 µM [inhibitor, single point]"
Cc1cccn2c(=O)c3cc(C(=O)NCC4CCCO4)c(=N)n(C4CCCCC4)c3nc12 (stereo not drawn),,"inconclusive: 11.2 µM [inhibitor, partial curve]"
Oc1ccc(C=Cc2cc(O)cc(O)c2)cc1,inactive: 59.2%,
COc1cccc(CN(C)C(=O)COc2ccc(C(=O)c3ccc(Cl)cc3)cc2)c1OC,,"inconclusive: 39.8 µM [inhibitor, single point]"
O=C(CSc1ccc2ccccc2n1)N/N=C/c1ccccc1O,,"inconclusive: 31.6 µM [inhibitor, partial curve, poor fit]"
C[C@@H]1[C@@H](Sc2ccccc2)CC(=O)O[C@@H]1c1ccc(-c2ccccc2)cc1,,active: 17.8 µM
O=C(/C=C/c1ccccc1)Nc1nc(-c2ccncc2)cs1,inactive: -38.2%,
C=CCNC(=S)N/N=C(\C)c1ccc(-n2ccnc2)cc1,,"inconclusive: 13.4 µM [inhibitor, partial curve, poor fit]"
Cn1c(=O)c2cc(S(=O)(=O)Nc3ccc4c(c3)OCO4)ccc2n(C)c1=O,inactive: -21.7%,
O=C(/C=C\Nc1ccccc1Br)c1ccc2c(c1)OCO2,,"inconclusive: 37.7 µM [inhibitor, single point]"
COc1cccc2nc(-c3cccs3)nc(NN3C(=O)C=C(C)C3=O)c12,,active: 6.11 µM
Cc1ccc(NC(CNS(=O)(=O)c2ccc(Cl)cc2)c2ccccc2)cc1 (stereo not drawn),,"inconclusive: 35.5 µM [inhibitor, single point]"
Cc1cc(Br)cc2c1NC(=O)C2(c1c(C)n(C)n(-c2ccccc2)c1=O)c1c(C)n(C)n(-c2ccccc2)c1=O,,"inconclusive: 28.2 µM [inhibitor, single point]"
C=CCC[C@@H](Cc1ccc(F)cc1)C(=O)OC[C@H](C)NC(=O)[C@@H](CC=C)CC(=O)N(CCO)Cc1ccccc1,,"inconclusive: 22.4 µM [inhibitor, single point]"
CCN1CCN(C(c2ccccc2)c2nnnn2CCc2ccc(OC)c(OC)c2)CC1 (stereo not drawn),,"inconclusive: 10 µM [inhibitor, partial curve, poor fit]"
CCO[C@H]1OC(C(=O)NCc2nc3ccccc3[nH]2)=C[C@@H](c2ccc(Br)cc2)[C@@H]1CCCO,,"inconclusive: 31.6 µM [inhibitor, single point]"
Cc1cc(C(=O)C[N+]2(C)CCOCC2)c(C)n1-c1ccc(Br)cc1,inactive: 4.6%,
